Assay in all cases: SPR
The target of assay [1] is T1, C-terminally biotinylated IL-13Rα2 (human, UniProt Q14627 29-331, biotin on the C-terminal biotinylation peptide).
T1 sequence (looked up): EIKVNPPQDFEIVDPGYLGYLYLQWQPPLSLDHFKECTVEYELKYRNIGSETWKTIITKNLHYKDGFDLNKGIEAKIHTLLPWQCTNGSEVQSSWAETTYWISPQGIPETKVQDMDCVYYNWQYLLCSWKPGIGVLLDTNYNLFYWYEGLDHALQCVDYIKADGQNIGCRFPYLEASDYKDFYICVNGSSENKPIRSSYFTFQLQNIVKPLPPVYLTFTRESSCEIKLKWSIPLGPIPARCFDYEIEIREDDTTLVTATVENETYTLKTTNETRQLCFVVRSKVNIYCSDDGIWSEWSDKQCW

The target of assay [2] is T1, C-terminally biotinylated IL-13Rα2. The source holds these as a separate data set.
Assay [3] has as its target T2, C-terminally biotinylated IL-13Rα1 (UniProt P78552 22-343, biotin on the C-terminal biotinylation peptide).
T2 sequence (looked up): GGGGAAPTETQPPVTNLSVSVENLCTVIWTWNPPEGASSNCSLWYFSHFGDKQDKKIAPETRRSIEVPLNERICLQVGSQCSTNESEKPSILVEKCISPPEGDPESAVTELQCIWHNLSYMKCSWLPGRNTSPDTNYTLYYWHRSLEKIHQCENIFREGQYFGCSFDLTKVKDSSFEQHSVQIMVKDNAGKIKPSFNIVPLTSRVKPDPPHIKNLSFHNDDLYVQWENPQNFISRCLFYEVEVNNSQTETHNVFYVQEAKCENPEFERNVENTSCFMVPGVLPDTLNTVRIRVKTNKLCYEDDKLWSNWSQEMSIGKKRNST

B1: Human IL-13 ([…]), wild type, fully glycosylated (ligand)
chain: not shown
modifications: fully glycosylated
As for B1, the Kd in assay [1] is under 0.1 pM. In assay [2], this molecule returned a koff of 1.93e-06 s⁻¹ and a kon of 1.22e+08 M⁻¹ s⁻¹. Moreover, in assay [3], the koff was 0.00397 s⁻¹ and the kon was determined as 2.35e+06 M⁻¹ s⁻¹.

As a reminder, the Kd is a measure of binding affinity in units of concentration. A low value points to tighter binding. The koff is the first-order rate constant of dissociation. A low value points to a long-lived complex. One may read the kon as the second-order rate constant of association.

These data come from PMC2850121 (Structure (London, England : 1993), 2010).
